According to PubChem BioAssay AID463173 (ICCB-Longwood Screening Facility, Harvard Medical School, 2010):
The campaign covered roughly 52,000 compounds. About 1,700 (3.3%) were called active. Cut-off read from the data, not from the text of the source: active = survival mostly below about 52% (no sharp cut-off); inactive = mostly above about 56%. This is one part of the list.

test system: Wild type; test: growth inhibition of S. aureus wild type versus tarO mutant, primary screen, teichoic acid synthesis inhibitors, RN4220, OD600 (AID 463173); conditions: S. aureus RN4220 wild type/DeltatarO growth, OD600, 18 h, active compounds read low, screened at 18.75 µg/mL (by protocol)

SMILES | survival
COc1cc(OC)cc(-c2cc3nc(C)c(CCC(=O)Nc4ccc(F)c(Cl)c4)c(C)n3n2)c1 | inactive: 84%
CCc1ccc(NC(=O)N(Cc2cn(CC)c3ccccc23)C2CCCCC2)cc1 | active: 0%
Cc1c(Cl)cccc1NC(=O)C(C)N(c1ccccc1)S(C)(=O)=O (stereo not given) | inactive: 70%
Cc1cc(C)cc(NC(=O)c2ncn(-c3ccccc3)n2)c1 | inactive: 74%
O=C(CSCc1cnn(-c2ccccc2)c1-n1cccc1)NCc1ccccc1Br | inactive: 123%
CCc1ccc(NC(=O)COCc2cc(-c3ccc(F)cc3)on2)cc1 | inactive: 75%
Cc1ccc(-c2cn3cccnc3n2)cc1NC(=O)Cc1ccccc1 | inactive: 89%
O=S(=O)(c1ccccc1)c1nc(-c2ccccc2)oc1N1CCN(c2cccc(Cl)c2)CC1 | inactive: 86%
C=CCN(CC=C)C(=O)c1c(-c2ccccc2Cl)noc1C | inactive: 101%
CCc1ccccc1-n1c2c(cc(-c3nc(-c4ccc(Cl)cc4)cs3)c1=O)C(=O)CC(C)(C)C2 | inactive: 73%
COc1ccc(Cc2nc3ccc(C(=O)NCCc4ccccc4)cc3o2)cc1 | inactive: 69%
COc1ccc(CNC(=O)c2ccc3c(c2)CCN3S(=O)(=O)c2ccc(Cl)cc2)cc1 | inactive: 88%
Cc1ccc(-c2nn3c(=O)cc(CN4CCN(S(=O)(=O)c5ccc(Cl)cc5)CC4)nc3s2)cc1 | inactive: 74%
O=C(COc1ccc(F)cc1)NC1CC(=O)N(c2ccc3c(c2)OCCO3)C1 (stereo not given) | inactive: 74%
N#CCSc1nc(N)cc(N)n1 | inactive: 104%
COc1cccc(NC(=O)C2CCN(c3cc(C)nc4c(-c5ccc(Cl)cc5)c(C)nn34)CC2)c1 | inactive: 124%
CC(NC(=O)C1=Cc2ccccc2OC1)c1ccccc1 (stereo not given) | inactive: 70%
CC(=O)Nc1ccc(NC(=O)Cn2c(=O)ccc3cc(S(=O)(=O)N4CCC(C)CC4)ccc32)cc1 | inactive: 91%
COc1cc2nc(SCC(=O)Nc3cccc(C)c3)n3nc(CCn4c(C)nc5ccccc54)nc3c2cc1OC | inactive: 94%
CCOc1ccc(OCC)c(NS(=O)(=O)c2ccc3[nH]c(=O)ccc3c2)c1 | active: 0%
CCCc1nc2ccccc2c(N)c1CC | inactive: 103%
O=C(N/C(=C\c1ccco1)C(=O)N1CCCC1)c1ccccc1 | inactive: 110%
COc1cc(C2NC(=O)N(C)C3=C2C(=O)N(c2ccccc2)C3)ccc1O (stereo not given) | inactive: 73%

SMILES | survival
CCC(C)NC(=O)c1sc2nc(C)c(C(=O)Nc3ccc(C)cc3C)c(-c3ccc(Br)cc3)c2c1N (stereo not given) | inactive: 87%
Cc1ccc2[nH]c(=O)c3cc(C(=O)N4CCN(c5ccccc5F)CC4)sc3c2c1 | inactive: 75%
CC1=C(C(=O)Nc2ccc(C)c(C)c2)C2(CCCCCC2)OC1=O | inactive: 118%
O=C(CSc1nc(-c2ccccc2)cc(=O)[nH]1)Nc1ccccc1F | inactive: 86%
COc1ccc(-c2cnc(NCc3ccc(C)cc3)n2C)cc1 | inactive: 108%
Cc1cccc(CSc2ncc(Cl)c(C(=O)Nc3sc4c(c3C#N)CCCC4)n2)c1 | inactive: 116%
COc1ccc(CCNC(=O)CSc2nc3ccccc3nc2Cc2ccc(C)cc2)cc1OC | inactive: 52%
COc1ccccc1CNC(=O)c1nn(-c2ccc(C)cc2)c(=O)c2c1c1ccccc1n2C | inactive: 128%
O=C(NCc1ccccc1)c1cccc(NC(=O)N2CCSc3ncccc32)c1 | inactive: 59%
CCN(CC)c1nc2c(S(=O)(=O)c3ccc(C)cc3)nnn2c2ccsc12 | inactive: 84%
COc1ccccc1NC(=O)CSc1oc(-c2cccs2)nc1S(=O)(=O)c1ccc(C)cc1 | inactive: 62%
O=C(CN1C(=O)c2cccc3cccc1c23)NC1CCCC1 | inactive: 112%
O=C(Nc1nnc(S(=O)(=O)N2CCCC2)s1)c1ccccc1Cl | inactive: 96%
CCn1ccc2cc(S(=O)(=O)N3CCC(C(=O)NCc4ccc(OC(C)C)cc4)CC3)ccc21 | inactive: 69%
CCCSc1nnc2c(n1)OC(CC)N(C(C)=O)c1ccccc1-2 (stereo not given) | inactive: 82%
O=C(CN1C(=O)COc2ccc(S(=O)(=O)N3CCCCC3)cc21)NCCc1ccc(Cl)cc1 | inactive: 82%
COc1ccc(-c2nc3ccc(C(=O)NCc4ccccc4)cc3nc2-c2ccc(OC)cc2)cc1 | inactive: 72%
Cc1ccccc1NC(=O)c1ccccc1NC(=O)c1ccccc1F | inactive: 89%
COC(=O)COc1ccc(Oc2nc(NC(C)(C)C)nc(N3CCOCC3)n2)nn1 | inactive: 61%
CCOc1ccccc1CNC(=O)Cn1nc(C)c2nn(-c3ccc(Cl)cc3)c(C)c2c1=O | inactive: 78%
COc1ccc(Cc2nc3c4cnn(-c5ccccc5Br)c4ncn3n2)cc1 | inactive: 89%
CC1=C(c2ccc(C)c(C)c2)S(=O)(=O)N(Cc2ccc(C(=O)NCc3ccc(C)cc3)cc2)C1=O | inactive: 77%
Cc1cccc(OCC(=O)NCc2ccc3c(c2)CCN3C(=O)c2ccccc2)c1 | inactive: 82%

SMILES | survival
COc1ccc(N2CCN(S(=O)(=O)c3c(C)nc4sc(C)cn4c3=O)CC2)cc1 | inactive: 95%
CCOc1ccc(NC(=O)c2cc(CN3CCCC3)on2)cc1 | inactive: 128%
O=C(Cn1c(=O)oc2cc(S(=O)(=O)NCc3ccccc3)ccc21)NCc1ccc(F)cc1 | inactive: 89%
COc1ccc(/C=C/C(=O)Nc2ccc(Cl)c(Cl)c2)cc1OC | active: 5%
O=C(Cn1nc(C(F)(F)F)c2c1CCCC2)Nc1ccc(F)c(Cl)c1 | inactive: 77%
Cc1c(C(=O)NCc2ccc(F)cc2)sc2nc3n(c(=O)c12)CCC3 | inactive: 82%
COc1ccc(-c2ccc(=O)n(CC(=O)Nc3ccc(N(C)C)cc3)n2)cc1 | inactive: 57%
CC(=O)Nc1ccc(NC(=O)Nc2sc3nc4n(c(=O)c3c2C)CCC(C)CC4)cc1 (stereo not given) | inactive: 91%
Cc1c(NC(=O)c2cc3ccccc3o2)cccc1-c1nc2ccccc2o1 | inactive: 35%
COc1ccc(OC)c(NC(=O)c2ccc(-c3nc(COc4ccccc4)c(C)o3)cc2)c1 | inactive: 83%
Cc1cccc(N(C)C(=O)C2CCN(S(=O)(=O)c3cccc4nonc34)CC2)c1 | inactive: 59%
Cc1ccc2nc(Nc3ccc(Br)cc3)nc(-c3ccccc3)c2c1 | inactive: 56%
CCOc1ccc2oc(=O)cc(CN3CCN(C(=O)c4ccc(Cl)cc4)CC3)c2c1 | inactive: 81%
CCCCc1nn2c(=O)cc(COC(=O)CNC(=O)c3ccccc3C)nc2s1 | inactive: 120%
CSc1ccc(C2c3c(oc4ccc(F)cc4c3=O)C(=O)N2c2ccc(C)cn2)cc1 (stereo not given) | inactive: 76%
COc1ccc(OC)c(NC(=O)Cn2cc(C(=O)c3cccs3)c3ccccc32)c1 | inactive: 67%
Cc1ccc(C(C)C)c(OCCSc2nc(-c3cccs3)nc3cc(=O)[nH]n23)c1 | inactive: 75%
CCc1cccc(CC)c1NC(=O)Cc1csc(C)n1 | inactive: 83%
O=C(Nc1ccccc1Cl)NC1(C(=O)NCc2cccnc2)CCCCC1 | inactive: 111%
Cc1cccc(CN2C(=O)c3ccccc3Sc3ccc(C(=O)NCCc4ccccc4)cc32)c1 | inactive: 81%
CCC(=O)N1CCc2cc(CNS(=O)(=O)c3ccc(Cl)s3)ccc21 | inactive: 78%
Cc1ccc(NC(=O)/C(C#N)=C/c2cn(CC(=O)NCc3ccco3)c3ccccc23)c(C)c1 | inactive: 110%
Cc1cc(Nc2cccc(F)c2)n2nc(-c3ccco3)nc2n1 | inactive: 69%

SMILES | survival
O=C1C=C(c2ccccc2)OC(c2ccccc2)O1 (stereo not given) | inactive: 114%
NC(=O)C1(N2CCCCC2)CCN(C(=O)Nc2ccc(Cl)c(Cl)c2)CC1 | inactive: 116%
Cc1ccc(C)c(N2CCN(C(=O)C3CCN(Cc4nc(-c5cccc(Cl)c5)oc4C)CC3)CC2)c1 | active: 3%
COc1ccc(CNC(=O)c2cc3sccc3n2C)cc1 | inactive: 67%
COc1cccc(NC(=O)c2sc3nc(C)c(C(=O)Nc4ccc(C)cc4C)c(-c4ccc(Br)cc4)c3c2N)c1 | inactive: 139%
COc1ccc(N2CCN(C(=O)c3cc4c(=O)n(Cc5cccs5)ccc4nc3C)CC2)cc1 | inactive: 101%
Cc1cc(Cl)ccc1NC(=O)C1CCN(S(=O)(=O)c2ccc3[nH]c(=O)ccc3c2)CC1 | inactive: 81%
Cc1cccc(Cn2c(=O)n(CCc3ccccc3)c(=O)c3sc4ccccc4c32)c1 | inactive: 81%
Cc1ccc(CCNC(=O)CCSCc2ccccc2F)cc1 | active: -6%
Cc1ccc(C2c3[nH]c4ccccc4c3CCN2C(=O)c2ccc(N(C)C)cc2)cc1 (stereo not given) | inactive: 68%
CCOC(=O)c1cc(-c2ccccc2)nn1Cc1ccccc1 | active: 2%
O=C(CCOc1ccccc1)N(Cc1cccnc1)c1nc2c(Cl)cccc2s1 | inactive: 87%
Cc1ccccc1-c1nnn(C/C(N)=N/O)n1 | inactive: 112%
COc1ccc(C)cc1NC(=O)C(CCSC)NS(=O)(=O)c1ccc2c(c1)oc(=O)n2C (stereo not given) | inactive: 87%
COc1cc(C)c(S(=O)(=O)N2CCCC(C)C2)cc1C (stereo not given) | inactive: 103%
CCn1nnc2cc(C(=O)Nc3cccc(C(F)(F)F)c3)ccc21 | inactive: 80%
CCOC(=O)N1CCc2c(sc3c2c(=O)n(Cc2ccccc2)c(=O)n3CC(=O)Nc2ccccc2F)C1 | inactive: 86%
O=S(=O)(Nc1c(F)cccc1F)c1ccc2c(c1)OCCO2 | inactive: 73%
Cc1ccc2oc(C(=O)Nc3c(C(=O)c4ccc(C)c(F)c4)oc4ccccc34)cc(=O)c2c1 | inactive: 88%
Cc1cc(NC2C3CC4CC(C3)CC2C4)n2ncnc2n1 (stereo not given) | inactive: 106%
CCOC(=O)c1c(C)[nH]c(CCC(=O)Nc2ccc(N(CC)CC)cc2C)c1C | inactive: 125%
